Measured values from PubChem BioAssay AID1452 (National Center for Advancing Translational Sciences (NCATS), 2008).
Screen size: about 150,000 compounds; about 190 (0.13%) were called active. Inconclusive means that the source gave no clear call. Such entries were picked first, then a sample of the others. The call rests on the fitted dose curve; in most records, active means well fitted inhibition curve with a large enough effect; inconclusive means small, poorly fitted or top-dose-only effect; inactive means flat fitted curve, though single readings scatter. Potencies of inconclusive entries are doubtful fits and often do not repeat.

Biological target: Polyunsaturated fatty acid lipoxygenase ALOX12 (Homo sapiens) (UniProt P18054)
Assay: qHTS Assay for Inhibitors of 12-hLO (12-human lipoxygenase); further: nearly all actives have a fitted effect of over 55% in size
Details: purified 12-hLO, xylenol orange hydroperoxide absorbance; series mostly up to 57.1 µM
Outline: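 Xylenol orange chromogenic assay: hydroperoxide from 12hLO oxidises Fe(II), giving red-shifted Fe(III)-XO absorbance. Conditions: 150 nM enzyme, 40 uM arachidonic acid, 25 mM Hepes pH 7.0, 0.01% Triton X-100, 30 min, room temperature.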
Potency means the concentration at half of the fitted maximal effect; tags describe the fitted curve by direction and shape.

Sequence of UniProt P18054 (P18054 whole entry, looked up): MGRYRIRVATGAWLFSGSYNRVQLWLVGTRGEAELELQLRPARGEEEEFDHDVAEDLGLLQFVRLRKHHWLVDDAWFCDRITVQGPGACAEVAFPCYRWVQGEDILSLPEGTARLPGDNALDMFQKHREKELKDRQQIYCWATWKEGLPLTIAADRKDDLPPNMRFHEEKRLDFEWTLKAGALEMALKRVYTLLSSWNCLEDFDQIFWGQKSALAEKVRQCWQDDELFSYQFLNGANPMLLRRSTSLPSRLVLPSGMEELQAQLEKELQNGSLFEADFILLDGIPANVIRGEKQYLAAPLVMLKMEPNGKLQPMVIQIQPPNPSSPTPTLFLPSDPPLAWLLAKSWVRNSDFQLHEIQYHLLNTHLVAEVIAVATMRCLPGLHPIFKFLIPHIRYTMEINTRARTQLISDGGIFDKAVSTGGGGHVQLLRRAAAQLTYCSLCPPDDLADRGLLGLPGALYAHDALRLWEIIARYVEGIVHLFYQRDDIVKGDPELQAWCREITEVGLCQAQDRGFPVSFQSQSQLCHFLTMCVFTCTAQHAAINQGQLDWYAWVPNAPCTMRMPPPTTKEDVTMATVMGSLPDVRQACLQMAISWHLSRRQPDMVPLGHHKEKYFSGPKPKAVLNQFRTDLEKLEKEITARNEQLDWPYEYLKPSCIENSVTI

SMILES | Potency
CC1CCC2(CC1)NC(=S)N(c1ccccc1)N2 (configuration not stated) | inconclusive: 17.8 µM [inhibitor, partial curve]
COc1ccc(-c2nn(-c3ccccc3)cc2/C=N/NC(N)=S)cc1OC | inconclusive: 39.8 µM [inhibitor, single point]
CC(C)Cc1nc(NCCN2CCOCC2)c(C#N)c2c1COC(C)(C)C2 | inactive
Cc1ccccc1NC(=S)NCc1ccc(Cl)cc1 | inconclusive: 35.5 µM [inhibitor, single point]
CCNc1ccccc(C(=O)/C=C/c2ccc3c(c2)OCO3)c1=O | inconclusive: 15.8 µM [inhibitor, partial curve]
CC1(C)Nc2ccc(O)cc2-c2c1ssc2=S | inconclusive: 25.1 µM [inhibitor, single point]
COc1cccc(/C=N/n2c(-c3ccco3)nc3ccccc3c2=O)c1 | inactive
COc1ccc(OC)c(NC(=S)N2CCC(C(O)(c3ccccc3)c3ccccc3)CC2)c1 | inconclusive: 28.2 µM [inhibitor, single point]
CN(c1ccccc1)S(=O)(=O)c1ccc(NC(=O)c2ccc(-c3ccccc3)cc2)cc1 | inconclusive: 3.98 µM [inhibitor, single point]
COc1ccc(-n2c(SCC3CNC(=O)O3)nnc2-c2ccc(Cl)cc2)cc1 (configuration not stated) | inactive
COCc1cc(CN2CCCC2)c(O)c2ncccc12 | inconclusive: 5.01 µM [inhibitor, partial curve]
Cc1ccc(N/N=C/c2c(O)cc(C)oc2=O)cc1 | inconclusive: 31.6 µM [inhibitor, single point]
CCN(CC)S(=O)(=O)N1CCC(C(=O)NCc2ccc3c(c2)OCO3)CC1 | inactive
Cc1cc(NC(=O)c2c(Cl)cnn2C)no1 | inactive
COc1ccc(N2C(=O)[C@@H]3[C@H](C2=O)[C@H](C(=O)c2ccc(OC(C)=O)cc2)N2N=CC=C[C@@H]32)cc1 | inactive
CC(C)(C)OC(=O)NCCc1nnc(SCC(=O)Nc2cccc(Cl)c2)o1 | inactive
CC1CCN(S(=O)(=O)c2ccc3c(c2)oc(=O)n3CC(=O)NCc2ccc3c(c2)OCO3)CC1 | inconclusive: 14.1 µM [inhibitor, partial curve]
CC(=O)NN1C(=O)/C(=C/c2ccc(C(C)C)cc2)SC1=S | inactive
CCN1/C(=C/C=C/C=C/c2sc3ccccc3[n+]2CC)Sc2ccccc21 | inconclusive: 31.6 µM [inhibitor, single point]
O=C1CSC(=S)N1CC1CCCO1 (configuration not stated) | inactive
Cc1ccc(C(=O)NC(=S)NCC2CCCO2)cc1Br (configuration not stated) | inconclusive: 12.6 µM [inhibitor, single point]
O=C(COC(=O)Cc1ccc(S(=O)(=O)N2CCCCC2)s1)Nc1ccc2c(c1)OCO2 | inconclusive: 8.91 µM [inhibitor, partial curve]
O=C(O)c1c(Sc2ccccc2)c2cc(Cl)ccc2n1Cc1ccc(Cl)cc1 | inconclusive: 25.1 µM [inhibitor, single point]
CC(Cc1ccccc1)C(=O)NCc1ccccn1 (configuration not stated) | inactive

SMILES | Potency
CN(c1ccccc1C(=O)Nc1ccccc1C(=O)NCc1ccco1)S(C)(=O)=O | inactive
O=c1[nH]c2ccccc2n2c(-c3ccccc3)nnc12 | inconclusive: 31.6 µM [inhibitor, single point]
NCCOB(c1ccccc1)c1ccccc1 | inconclusive: 3.98 µM [inhibitor, full curve]
c1ccc(-c2nc(-c3cccs3)c(NC3CCCCC3)o2)cc1 | inactive
O=C1NC(=S)SC1=C1CCCCCC1 | inconclusive: 39.8 µM [inhibitor, single point]
CC1(C)CC(=O)C(C(C2=C(O)CC(C)(C)CC2=O)c2cccc(O)c2)C(=O)C1 (configuration not stated) | inactive
Cc1ccccc1/C=c1\s/c(=C\C(=O)C(C)(C)C)[nH]c1=O | inconclusive: 2.82 µM [inhibitor, full curve, poor fit]
COc1ccc(C(=O)N(Cc2ccco2)Cc2cccs2)c(O)c1 | inactive
COc1ccccc1NS(=O)(=O)c1cccc(NC(=O)Nc2cccc(Cl)c2)c1 | inconclusive: 10 µM [inhibitor, partial curve]
Cc1c(Cl)cccc1NC(=S)N1CCC(C(N)=O)(N2CCCCC2)CC1 | inactive
CN(C)c1ccc(C(=C2C=CC(=[N+](C)C)C=C2)c2ccc(N(C)C)cc2)cc1 | inconclusive: 31.6 µM [inhibitor, partial curve]
COc1ccc(/C=C/c2nc(-c3ccccc3O)n[nH]2)cc1 | inconclusive: 15.8 µM [inhibitor, partial curve]
Cc1ccc(CNC(=O)c2cn(C3CCCC3)c(=O)c3c2c2ccccc2n3C)o1 | inconclusive: 15.8 µM [inhibitor, partial curve]
CCOC(=O)C1=C(C)Nc2nnnn2C1c1ccc(OC)c(Br)c1 (configuration not stated) | inactive
CCOc1cc(NC(=S)NCC2CCCO2)c(OCC)cc1NC(=O)c1cccc(C)c1 (configuration not stated) | inconclusive: 15.8 µM [inhibitor, partial curve]
CCCCNC(=S)N/N=C/c1cc(C)ccc1C | inconclusive: 25.1 µM [inhibitor, single point]
COc1ccc(-c2n[nH]c(C)c2-c2cnn(-c3ccccc3)c2)c(O)c1C | inconclusive: 14.1 µM [inhibitor, partial curve]
Cc1ccccc1OCC(=O)Nc1ccccc1N1CCCCC1 | inactive
O=C1C=CC(=O)C2=C1C1c3ccccc3C2c2ccccc21 | inconclusive: 11.2 µM [inhibitor, partial curve]
COc1ccc(Cn2c3nc4ccccc4nc3c3c(=O)n(Cc4ccco4)cnc32)cc1 | inconclusive: 15.8 µM [inhibitor, partial curve]
CCOC(=O)CNC(=O)CSc1ncnc2c1cnn2-c1ccc(OC)cc1 | inactive
N#C/C(=C\c1ccc(O)c(O)c1)S(=O)(=O)c1ccccc1 | inconclusive: 1.12 µM [inhibitor, partial curve]
CCOc1cccc(C(=O)NC(=S)Nc2cccc(NC(=O)c3ccccc3Cl)c2)c1 | inconclusive: 7.94 µM [inhibitor, full curve]
CC(C)(C)c1cc(C(=S)N2CCN(CCO)CC2)cc(C(C)(C)C)c1O | inconclusive: 12.6 µM [inhibitor, single point]

SMILES | Potency
O=C(Nc1ccc(Br)c(Cl)c1)C1CC1 | inconclusive: 3.55 µM [inhibitor, full curve]
Cc1ccc(NC(=S)NCc2ccccc2)cc1[N+](=O)[O-] | inactive
CC(=O)N1CCN(C(=S)c2ccc(-c3ccc(Cl)cc3)o2)CC1 | inconclusive: 31.6 µM [inhibitor, partial curve]
O=C1C2C3C=CC(CO)(O3)C2C(=O)N1c1ccc(-c2ccccc2)cc1 (configuration not stated) | inconclusive: 10 µM [inhibitor, partial curve]
CC(C)CC(=O)NC(NC(=S)Nc1sc2c(c1C#N)CCCC2)C(Cl)(Cl)Cl (configuration not stated) | inconclusive: 22.4 µM [inhibitor, single point]
O=C1CCCC/C1=C/Nc1ccc2c(c1)OCO2 | inconclusive: 39.8 µM [inhibitor, single point]
COc1cccc(C2CC(c3c(-c4ccccc4)c4cc(Cl)ccc4[nH]c3=O)=NN2S(C)(=O)=O)c1OC (configuration not stated) | inactive
CCOC(=O)c1nnn(-c2ccccc2)c1C | inconclusive: 5.62 µM [inhibitor, single point]
Cc1cc(C)nc(/N=C(/NC(=O)Nc2ccc(Cl)c(Cl)c2)Nc2cccc(Cl)c2)n1 | inactive
O=C(c1cc(C(F)(F)F)cc(C(F)(F)F)c1)N1CCC2(CCCN(c3ccccc3)C2)CC1 | inactive
CN(c1ccccc1)c1ccc(/C=C/[N+](=O)[O-])cc1 | inactive
Nc1c(N=Nc2ccc(-c3ccc(N=Nc4cc(S(=O)(=O)O)c5ccccc5c4N)cc3)cc2)cc(S(=O)(=O)O)c2ccccc12 | inconclusive: 3.55 µM [inhibitor, full curve, poor fit]
CCc1cccc(CC)c1NC(=S)NCCc1c(C)[nH]c2ccc(C)cc12 | inconclusive: 25.1 µM [inhibitor, single point]
FC(F)(F)c1cccc(N2CCN(C(=S)NC3CCCCC3)CC2)c1 | inconclusive: 22.4 µM [inhibitor, single point]
COCc1ccc(O)c2ncccc12 | inconclusive: 4.47 µM [inhibitor, full curve, poor fit]
Oc1c(C(c2cccs2)N2CCN(c3ccccc3)CC2)ccc2cccnc12 (configuration not stated) | inconclusive: 4.47 µM [inhibitor, partial curve]
O=C(NCCCNc1ccc([N+](=O)[O-])cc1)C(F)(F)F | inconclusive: 7.94 µM [inhibitor, single point]
Cn1c(-c2ccccc2)cc2c3no[n+]([O-])c3ccc21 | inactive
Cc1cc(=O)oc2cc(OCc3nnc(-c4ccccc4Br)o3)ccc12 | inactive
Cn1cccc1/C=N/n1c(-c2ccc(C(C)(C)C)cc2)n[nH]c1=S | inconclusive: 22.4 µM [inhibitor, single point]
CCOC(=O)c1cc(-c2ccc(C#N)cc2)nc2c1c(C)nn2CCC#N | inactive
O=C(NCC1CCCO1)c1cc(-c2ccc(Cl)cc2Cl)on1 (configuration not stated) | inactive
CCOC(=O)COc1cc(Br)c(/C=N/Nc2ccccc2)cc1OC | inconclusive: 0.891 µM [inhibitor, full curve]
COc1ccc2nc3sc(C(=O)NCc4cccs4)c(N)c3cc2c1 | inconclusive: 31.6 µM [inhibitor, partial curve]
